In the antibiotic and cytotoxicity screens of Wong et al. (2023):
Some of the results follow.

What was measured:
[1] = test system: HSkMC (human skeletal muscle cells); assay: cytotoxicity call (relative viability < 0.9); details: 10 µM
[2] = test system: HepG2; assay: cytotoxicity call (relative viability < 0.9); details: 10 µM
[3] = test system: S. aureus RN4220; assay: growth inhibition call (relative growth <= 0.2); details: 50 µM

| SMILES | cytotoxicity call [1] | cytotoxicity call [2] | growth inhibition call [3] |
| --- | --- | --- | --- |
| C[C@@H](O)[C@@H](O)[C@H]1CNc2[nH]c(N)nc(=O)c2N1 | inactive | inactive | inactive |
| CCCC[P+](CCCC)(CCCC)Cc1ccc(NC(=O)[C@@H](Cc2ccc3ccccc3c2)N=C(NC2CCCCC2)NC2CCCCC2)cc1 | active | inactive | active |
| C[C@@H]1CN([C@@H](C)CO)C(=O)c2cc(NC(=O)Cc3ccccc3)ccc2O[C@@H](C)CCCCO[C@H]1CN(C)S(=O)(=O)c1ccc(Cl)cc1 | inactive | inactive | inactive |
| COc1ccc(S(=O)(=O)N[C@@H]2CC[C@H](CC(=O)N3CCC(Cc4ccccc4)CC3)O[C@@H]2CO)cc1 | inactive | inactive | inactive |
| C[C@@H]1CCCCO[C@H](CN(C)Cc2ccc(Cl)c(Cl)c2)[C@@H](C)CN([C@@H](C)CO)C(=O)c2cc(NC(=O)Nc3ccc(F)cc3)ccc2O1 | inactive | active | inactive |
| Oc1ccc(O)cc1 | inactive | active | inactive |
| Cc1ccc(S(=O)(=O)N2C[C@H](O)COC[C@H]3O[C@H](CC(=O)NCCN4CCCCC4)CC[C@@H]32)cc1 | inactive | inactive | inactive |
| C[C@@H]1CN([C@H](C)CO)C(=O)c2cc(-c3cccnc3)cnc2O[C@H]1CN(C)Cc1ccc(-c2ccccc2)cc1 | inactive | inactive | inactive |
| C[C@@H]1CCCCO[C@H](CN(C)Cc2ccc3c(c2)OCO3)[C@H](C)CN([C@@H](C)CO)C(=O)c2cc(NS(=O)(=O)c3ccc(F)cc3)ccc2O1 | inactive | inactive | inactive |
| O=C(O)Cn1nnnc1-c1ccc(F)cc1 | inactive | inactive | inactive |
| Cc1noc(C)c1NC(=O)Nc1ccc2c(c1)C(=O)N([C@@H](C)CO)C[C@@H](C)[C@H](CN(C)Cc1ccc3c(c1)OCO3)OCCCC[C@@H](C)O2 | inactive | inactive | inactive |
| C[C@@H](SC(=S)N1CCOCC1)C(=O)O | inactive | inactive | inactive |
| C[C@H](CO)N1C[C@H](C)[C@H](CN(C)S(=O)(=O)c2ccc(F)cc2)Oc2ncc(C#CC3(O)CCCC3)cc2C1=O | inactive | inactive | inactive |
| C[C@@H]1CCCCO[C@@H](CN(C)S(=O)(=O)c2ccc(F)cc2)[C@H](C)CN([C@@H](C)CO)C(=O)c2cc(NC(=O)NC3CCCCC3)ccc2O1 | inactive | inactive | inactive |
| CO[C@@H]1CN(C)C(=O)c2cc(NS(C)(=O)=O)ccc2OC[C@H](C)N(C(=O)CN(C)C)C[C@H]1C | inactive | inactive | inactive |
| C[C@@H]1CN([C@H](C)CO)C(=O)Cc2cc(NS(=O)(=O)c3cccs3)ccc2O[C@H]1CN(C)S(=O)(=O)c1cccs1 | inactive | inactive | inactive |

| SMILES | cytotoxicity call [1] | cytotoxicity call [2] | growth inhibition call [3] |
| --- | --- | --- | --- |
| CC1=C(C(=O)O)N2C(=O)C(NC(=O)C(N)C3=CCC=CC3)C2SC1 (stereo not drawn) | inactive | inactive | inactive |
| O=C(OCc1cccc(O)c1O[C@@H]1O[C@H](CO)[C@@H](O)[C@H](O)[C@H]1O)[C@]1(O)C(=O)[C@@H]2C=C[C@H]1c1c2ccc(O)c1O | inactive | inactive | inactive |
| CC=NN(C)C=O | inactive | inactive | inactive |
| CC(C)CC#Cc1ccc2c(c1)O[C@@H](CN(C)C(=O)Cc1cccnc1)[C@H](C)CN([C@H](C)CO)S2(=O)=O | inactive | inactive | inactive |
| C(=N\c1cc(-c2ccccc2)nn1-c1ccccc1)/c1ccccc1 | inactive | inactive | inactive |
| Cc1cccc(NC(=O)Nc2ccc3c(c2)C(=O)N(C)[C@@H]2CC[C@@H](CC(=O)NCc4ccccc4Cl)O[C@H]2CO3)c1 | inactive | inactive | inactive |
| COCC#Cc1cnc2c(c1)C(=O)N([C@H](C)CO)C[C@@H](C)[C@@H](CN(C)C(=O)c1cnccn1)O2 | inactive | inactive | inactive |
| COc1ccc(NC(=O)Nc2ccc3c(c2)C(=O)N([C@H](C)CO)C[C@@H](C)[C@@H](CN(C)CC2CCCCC2)OCCCC[C@@H](C)O3)cc1 | active | active | inactive |
| C[C@H](CO)N1C[C@H](C)[C@H](CN(C)C(=O)Cc2ccncc2)Oc2cc(-c3cncnc3)ccc2S1(=O)=O | inactive | inactive | inactive |
| C[C@@H]1CN([C@@H](C)CO)C(=O)Cc2cc(NC(=O)Nc3ccccc3)ccc2O[C@H]1CN(C)C(=O)Nc1ccc(C(F)(F)F)cc1 | inactive | inactive | inactive |
| Cc1ccc2sc(C(=O)O)cc2c1 | inactive | inactive | inactive |
| C[C@H](CO)N1C[C@H](C)[C@@H](CN(C)S(=O)(=O)c2ccc(F)cc2)Oc2ccc(NS(=O)(=O)c3ccc(F)cc3)cc2C1=O | inactive | inactive | inactive |
| C[C@@H]1CN([C@@H](C)CO)C(=O)c2cc(C#CC3CC3)cnc2O[C@H]1CN(C)S(=O)(=O)c1cccc(F)c1 | inactive | inactive | inactive |
| Cn1c(=O)c2c(ncn2CCCCn2cnc3c2c(=O)n(C)c(=O)n3C)n(C)c1=O | inactive | inactive | inactive |
| C[C@H](CO)N1C[C@H](C)[C@H](CN(C)C(=O)c2ccccc2)Oc2cc(Br)ccc2S1(=O)=O | inactive | inactive | inactive |
